Screen size: about 410,000 compounds; about 5,000 (1.2%) were called active. The shares of active, inactive and inconclusive entries below differ from those in the screen. The call rests on the fitted dose curve; in most records, active means well fitted inhibition curve with a large enough effect; inconclusive means small, poorly fitted or top-dose-only effect; inactive means no such curve, though single readings can be large or run the other way. Potencies of inconclusive entries are doubtful fits and often do not repeat.
assay: qHTS for Inhibitors of TGF-b; conditions: HepG2 CAGA-GFP TGF-b/SMAD3 reporter, GFP fluorescence, 18 h, TGF-beta stimulated, 500 pg/mL final; series mostly up to 46.1 µM; activity, negative = inhibition: at the top concentration; further: nearly all actives have a fitted effect of over 65% in size
Method in brief: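 Using HEPG2 CAGA-GFP reporter cells at 1000 cells/well, we pinned test compounds, stimulated with recombinant TGF-beta (500 pg/mL final) and measured total well GFP after 18 h.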
On the % scale 0 is the no-effect control and ±100 the full control effect; potency means the concentration at half of the fitted maximal effect; tags describe the fitted curve by direction and shape.

Structure (SMILES)	Potency	activity, negative = inhibition
CCc1nn(CC(=O)N2CCN(c3cc(C)ccc3C)CC2)c(=O)c2cc3occc3n12	inconclusive: 1.58 µM [inhibitor, partial curve]	
Cc1nnc2c(SC(C)C)nc3ccccc3n12	inconclusive: 22.4 µM [inhibitor, single point]	
COc1cc2oc(=O)c(CC(=O)NCCc3ccccc3F)c(C)c2cc1OC	inconclusive: 7.08 µM [inhibitor, partial curve]	
Cc1ccc(NC(=O)C2CCCN(S(=O)(=O)c3ccc4[nH]c(=O)ccc4c3)C2)cc1C (configuration not stated)	inconclusive: 11.2 µM [inhibitor, partial curve, poor fit]	
CCCCn1c(N)c(N(CC(C)C)C(=O)C2CCN(S(=O)(=O)c3ccc(Cl)cc3)CC2)c(=O)[nH]c1=O		inactive: -22.5%
Cc1cccc(NC(=O)c2ccc(S(=O)(=O)NCc3cccnc3)cc2)c1C	inconclusive: 35.5 µM [inhibitor, single point]	
CCNC1=C(Cl)C(=O)c2ccccc2C1=O	inconclusive: 3.55 µM [inhibitor, partial curve, poor fit]	
O=C(Cn1c(=O)nc(-c2ccccc2F)c2cc(Cl)ccc21)Nc1ccccc1C(F)(F)F		inactive: 22.5%
Fc1ccccc1NC(=S)NC1CCCC1	inconclusive: 12.6 µM [inhibitor, single point]	
CCc1nc2c(OCc3cc(Cl)cc(Cl)c3)cccn2c1N(C)C(=O)CC(C)C	inconclusive: 35.5 µM [inhibitor, single point]	
CCn1c(SCc2ccc(C(=O)Nc3nccs3)cc2)nnc1-c1ccc(N)cc1	inconclusive: 10 µM [inhibitor, partial curve]	
Cc1cc(C(=O)COC(=O)CC2Sc3ccccc3NC2=O)c(C)n1-c1cccc(C(F)(F)F)c1 (configuration not stated)		inactive: -29.4%
Cc1ccc(C(=O)OCC(=O)NCc2ccc3c(c2)OCO3)o1		inactive: 1.97%
Cc1cc(C)cc(C(=O)Nc2ccc(NC(=O)c3cccs3)cc2)c1	inconclusive: 14.1 µM [inhibitor, single point]	
COC(=O)c1ccccc1NC1c2ccccc2C(=O)N1c1cccnc1 (configuration not stated)		inactive: -17.6%
CCOc1ccccc1NC(=O)CN1C(=O)COc2ccc(S(=O)(=O)Nc3ccccc3)cc21	inconclusive: 25.1 µM [inhibitor, single point]	
COc1ccc(OC)c2[nH]c(=O)c(CCNC(C)=O)cc12		inactive: 4.07%
O=C(/C(Br)=C/Nc1cc(Cl)ccc1Cl)C(F)(F)F	inconclusive: 2.24 µM [inhibitor, partial curve, poor fit]	
O=C(COC(=O)/C=C/c1ccc(F)cc1)Nc1cccc(S(=O)(=O)N2CCCC2)c1		inactive: -9.27%
CCc1nnc(NC(=O)CSc2nnc(C)n2Cc2ccccc2)s1		inactive: -20.1%
C/C(=N\OCC(=O)NC12CC3CC(CC(C3)C1)C2)c1cc2ccccc2o1	inconclusive: 35.5 µM [inhibitor, single point]	
O=C(c1ccco1)N1CCN(c2nc(C(F)(F)F)nc3c2nnn3Cc2ccccc2)CC1	inconclusive: 35.5 µM [inhibitor, single point]	
CC(=O)N1CCN(CC(=O)Nc2ccccc2Sc2ccccc2)CC1		inactive: 2.42%

Structure (SMILES)	Potency	activity, negative = inhibition
O=C(NCC(c1ccco1)N1CCc2ccccc21)C(=O)Nc1ccc(F)cc1F (configuration not stated)	inconclusive: 8.91 µM [inhibitor, partial curve]	
COc1ccc(S(=O)(=O)N2CCC(O)(c3ccc(Cl)cc3)CC2)cc1OC	inconclusive: 12.6 µM [inhibitor, single point]	
O=[N+]([O-])c1ccc2nc(NS(=O)(=O)c3ccc(Cl)cc3)sc2c1	inconclusive: 31.6 µM [inhibitor, single point]	
CCCN(Cc1nnc(-c2ccccc2Cl)o1)C(=O)c1cc([N+](=O)[O-])cc([N+](=O)[O-])c1		inactive: -6.71%
COc1cc(/C=C/c2ccc(/C=C/c3cc(OC)c(OC)c(OC)c3)cc2)cc(OC)c1OC	inconclusive: 5.62 µM [inhibitor, single point]	
CC(/C=C/c1ccccc1)=N\NC(=O)C1CC1(C)c1ccccc1 (configuration not stated)	inconclusive: 5.62 µM [inhibitor, single point]	
CCCN1C2CCCC1CC(NC(=S)Nc1cc(C)cc(C)c1)C2 (configuration not stated)		inactive: -6.74%
COc1ccccc1C(=O)N1c2ccccc2C(C)(c2ccc(Cl)cc2)CC1(C)C (configuration not stated)	inconclusive: 20 µM [inhibitor, partial curve, poor fit]	
O=C(CSc1n[nH]c(-c2ccccn2)n1)Nc1ccccc1	inconclusive: 12.6 µM [inhibitor, partial curve, poor fit]	
CN1CCN(C(=O)C2CCC(=O)N(CCc3cccc(F)c3)C2)CC1 (configuration not stated)	inconclusive: 0.501 µM [inhibitor, full curve, poor fit]	
CC(C(=O)N(C)Cc1cccc(F)c1)N1CCN(S(=O)(=O)c2ccc3c(c2)OCCCO3)CC1 (configuration not stated)	inconclusive: 12.6 µM [inhibitor, single point]	
O=C(Cc1c(F)c(F)c(F)c(F)c1F)OC12CC3CC(C1)C(=O)C(C3)C2	inconclusive: 5.01 µM [inhibitor, partial curve, poor fit]	
Cc1cccc(N(C)C(=O)c2cc(S(=O)(=O)N3CCCCC3)c[nH]2)c1	inconclusive: 35.5 µM [inhibitor, single point]	
C=CCNc1nc2ccccc2nc1NS(=O)(=O)c1ccc(Br)cc1	inconclusive: 25.1 µM [inhibitor, single point]	
CC(C)C[C@H]1CN([C@@H](CC(C)C)CN2CCC[C@@H]2CN2C(=O)C(=O)NC[C@@H]2Cc2ccccc2)C(=O)C(=O)N1CC1CCCCC1	active: 17.8 µM	
O=C(Nc1nc(-c2ccccn2)cs1)c1ccc(Br)s1		inactive: -28%
CC1(C(=O)O)CC(C)(C(=O)O)CC(C)(C(=O)O)C1 (configuration not stated)	inconclusive: 15.8 µM [inhibitor, single point]	
O=C(Nc1ccc(S(=O)(=O)N2CCCCC2c2cccnc2)cc1)c1ccc(F)cc1 (configuration not stated)	inconclusive: 20 µM [inhibitor, single point]	
COc1ccc(OCC(=O)N2CCN(S(=O)(=O)c3ccccc3[N+](=O)[O-])CC2)cc1		inactive: -4.02%
COc1ccc(NC(=O)c2cc(S(=O)(=O)N3CCCCC3)cn2C)cc1Cl	inconclusive: 5.62 µM [inhibitor, single point]	
CC1(C)Cc2c(C#N)c(N3CCN(C(=O)c4ccccc4Cl)CC3)nc(-c3ccco3)c2CS1	inconclusive: 31.6 µM [inhibitor, single point]	
CCOc1ccccc1N1CC(C(=O)N(Cc2nnc(-c3ccccc3Cl)o2)C2CC2)CC1=O (configuration not stated)		inactive: -1.28%
CCOc1ccc2nc(NC(=O)CSc3nc4c(c(=O)n(C)c(=O)n4C)n3C(C)C)sc2c1	inconclusive: 7.94 µM [inhibitor, partial curve, poor fit]	

Structure (SMILES)	Potency	activity, negative = inhibition
COc1ccc(/C=C(\CC(=O)O)c2nc3ccccc3o2)cc1		inactive: -9.5%
CS(=O)(=O)N(Cc1ccccc1)c1ccc(C(=O)N2CCN(c3cccc(Cl)c3)CC2)cc1		inactive: -10.5%
CCOc1ccc(-c2n[nH]c(C)c2Oc2ccccc2OC)c(O)c1	inconclusive: 6.31 µM [inhibitor, partial curve, poor fit]	
COCCN1CCN(Cc2cn(C)nc2-c2ccc(Oc3ccccc3)cc2)CC1		inactive: 19.5%
O=c1c(C=NCCCO)c(-c2ccccc2)[nH]n1-c1nc2ccccc2s1	inconclusive: 12.6 µM [inhibitor, partial curve]	
Cc1ccc(Nc2nc(N)c([N+](=O)[O-])c(NCc3ccco3)n2)cc1C	active: 15.8 µM	
COc1ccc2nc(NC(=O)c3nc(S(=O)(=O)Cc4ccccc4)ncc3Cl)sc2c1	active: 7.94 µM	
CSc1ccc(CCNC(=O)CCc2c(C)nc3c(c(C)nn3-c3ccc(C)c(C)c3)c2C)cc1	inconclusive: 35.5 µM [inhibitor, single point]	
CC(NC(=O)C(C)N1CCN(S(=O)(=O)c2ccccc2)CC1)c1ccccc1 (configuration not stated)		inactive: 7.25%
CCCCCCCCCCCCCCCC[n+]1ccc(C(N)=O)cc1	inconclusive: 14.1 µM [inhibitor, single point]	
CSc1cccc(NC(=O)CC(c2cccs2)N2Cc3ccccc3C2=O)c1 (configuration not stated)	inconclusive: 31.6 µM [inhibitor, single point]	
CCOC(=O)C1=C(C)NC(C)=C(C(=O)OCC)C1/C=C/c1ccccc1OC	inconclusive: 28.2 µM [inhibitor, single point]	
COc1cc(-c2noc(CN3CCN(c4cccc(Cl)c4)CC3)n2)cc(OC)c1OC	inconclusive: 14.1 µM [inhibitor, partial curve, poor fit]	
CCOc1ccccc1NC(=O)N1CCN(C)c2ncccc21		inactive: -21.2%
Cc1ccc(NC(=O)CSc2n[nH]c(-c3ccc(F)cc3)n2)cc1F	active: 11.2 µM	
COCCN(C(=O)c1ccc(-c2ccc([N+](=O)[O-])cc2)o1)c1c(N)n(CC(C)C)c(=O)[nH]c1=O		inactive: 13.2%
O=S(=O)(c1ccccc1)N1CCN=C1SCc1cccc(Cl)c1	active: 12.6 µM	
Cc1ccc(S(=O)(=O)N(C)C)cc1NC(=O)c1n[nH]c(=O)c2ccccc12	inconclusive: 15.8 µM [inhibitor, single point]	
CC(C)C1C(=O)N(Cc2cn(CCC3OCCCO3)nn2)CCS(=O)(=O)N1Cc1ccc(-c2ccncc2)cc1 (configuration not stated)		inactive: 10.2%
Cc1ccccc1OCC(=O)Nc1ccccc1-c1ccccc1NC(=O)COc1ccccc1C	inconclusive: 7.94 µM [inhibitor, partial curve]	
COc1ccc(N=c2oc3c(OC)cccc3cc2C(=O)NCc2ccco2)cc1OC		inactive: 13.4%

Reference: PubChem BioAssay AID588855 (National Center for Advancing Translational Sciences (NCATS), 2011)
